Out of some 310,000 compounds screened, about 2,200 (0.71%) showed an effect of 50% or more. The effect is printed as a negative number. The list shows a part of the results.
Target: human ether-à-go-go-related gene (hERG) potassium channel (human, UniProt Q12809)
Assay: primary screen, population patch clamp on CHO cells stably expressing hERG

Chain of human ether-à-go-go-related gene (hERG) potassium channel (Q12809 whole entry, looked up): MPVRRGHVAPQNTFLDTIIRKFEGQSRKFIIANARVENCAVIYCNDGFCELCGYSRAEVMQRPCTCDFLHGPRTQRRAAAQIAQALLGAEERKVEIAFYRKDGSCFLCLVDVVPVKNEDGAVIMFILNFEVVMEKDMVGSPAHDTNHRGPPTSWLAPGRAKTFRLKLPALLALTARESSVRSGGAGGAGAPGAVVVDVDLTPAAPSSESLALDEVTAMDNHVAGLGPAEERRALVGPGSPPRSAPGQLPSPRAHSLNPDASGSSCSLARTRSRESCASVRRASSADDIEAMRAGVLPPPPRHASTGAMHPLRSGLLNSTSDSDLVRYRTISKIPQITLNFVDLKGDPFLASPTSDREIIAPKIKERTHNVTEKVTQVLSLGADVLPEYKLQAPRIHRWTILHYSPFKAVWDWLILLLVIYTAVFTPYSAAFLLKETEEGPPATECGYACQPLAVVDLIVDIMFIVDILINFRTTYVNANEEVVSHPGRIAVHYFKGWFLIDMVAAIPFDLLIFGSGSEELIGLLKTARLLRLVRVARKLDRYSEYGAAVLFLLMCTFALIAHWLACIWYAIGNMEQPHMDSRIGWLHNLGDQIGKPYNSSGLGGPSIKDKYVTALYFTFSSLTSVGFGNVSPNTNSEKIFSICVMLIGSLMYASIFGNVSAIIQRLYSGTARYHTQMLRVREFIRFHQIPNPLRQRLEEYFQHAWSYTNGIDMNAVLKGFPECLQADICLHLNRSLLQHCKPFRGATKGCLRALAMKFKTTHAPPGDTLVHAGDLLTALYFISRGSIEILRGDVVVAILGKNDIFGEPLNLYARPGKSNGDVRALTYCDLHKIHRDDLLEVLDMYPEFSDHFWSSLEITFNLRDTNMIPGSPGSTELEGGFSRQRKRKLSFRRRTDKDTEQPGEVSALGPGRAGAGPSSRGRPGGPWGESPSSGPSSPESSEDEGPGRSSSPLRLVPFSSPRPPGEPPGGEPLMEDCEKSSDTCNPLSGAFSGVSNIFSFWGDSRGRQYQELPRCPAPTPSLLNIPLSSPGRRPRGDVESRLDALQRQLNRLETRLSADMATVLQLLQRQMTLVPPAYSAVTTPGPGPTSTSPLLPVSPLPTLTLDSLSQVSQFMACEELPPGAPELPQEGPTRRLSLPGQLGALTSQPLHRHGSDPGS

Row | Compound | hERG current change (%, negative = inhibition) at 1uM
1 | Fc1ccc(CSc2ccc3nnc(-c4cccnc4)n3n2)cc1 | -31.8%
2 | Cc1ccc(C)c(S(=O)(=O)N2CCN(C(=O)[C@@H]3CCCN3C(=O)c3cccs3)CC2)c1 | 8.19%
3 | CCCc1nc(SCC(=O)N2c3ccccc3CC2C)c2c(C)c(C)sc2n1 (stereo not drawn) | 13.5%
4 | O=C(CSC(=S)N1CCOCC1)Nc1ncc2c(n1)CC(c1ccco1)CC2=O (stereo not drawn) | 12%
5 | CCOC(=O)c1ccc(Oc2coc3cc(O)ccc3c2=O)cc1 | 18.1%
6 | COc1ccc(-c2nnc(N(C)C(=O)c3cccnc3)s2)cc1 | 8.01%
7 | N#Cc1c2n(c(=S)n(-c3ccc(F)cc3)c1=O)CCCCC2 | 15.7%
8 | COc1cc2c(cc1OC)C(C)N(C(=O)c1cc3ccccc3o1)CC2 (stereo not drawn) | 4.61%
9 | O=C(NC1CC1)C1CCN(c2ncccn2)CC1 | 10.3%
10 | CN(CC(=O)NNC(=O)Cc1ccccc1F)S(=O)(=O)c1ccc(Cl)cc1 | 8.43%
11 | Cc1ccc(NC2CCCN(C(=O)c3cn4cc(Cl)ccc4n3)C2)cc1C (stereo not drawn) | 12%
12 | O=c1[nH]n(-c2ccccc2Cl)c(=O)c2ccccc12 | 15.2%
13 | COc1ccc(-c2nnc(COc3ccc4ccccc4c3)o2)cc1OC | 15.3%
14 | CCC1(c2ccccc2)NC(=O)N(CC(=O)N(C)CC(=O)Nc2c(C)cccc2C)C1=O (stereo not drawn) | 10.3%
15 | CC(C)NC(=O)NC(=O)COC(=O)c1ccc([N+](=O)[O-])cc1Cl | -7.21%
16 | CCOC(=O)c1c(NC(=O)CN2C(=O)CN(C)C2=O)sc(C)c1C | 11%
17 | CC(=O)c1ccc(N2CCN(C(=O)CCCn3c(=O)[nH]c4ccccc4c3=O)CC2)cc1 | 7.45%
18 | CC(=O)C1=C(O)C(=O)N(CCC(=O)O)C1c1ccccc1Cl (stereo not drawn) | 7.48%
19 | COc1cc(/C=N/NC(=O)C(=O)NCC2CCCO2)cc(Cl)c1O (stereo not drawn) | 22.2%
20 | O=C(NC1CC1)C1=C[C@@H](c2ccccc2)C[C@@H](OCCCCO)O1 | 14.9%
21 | COc1ccc(NS(=O)(=O)c2c(C(=O)N3CCCCCC3)c(C)n(C)c2C)cc1OC | 13%
22 | O=C(Nc1cc(C(F)(F)F)ccc1-n1cncn1)c1ccc(Br)cc1 | 0.412%
23 | COc1ccc(C2C(C#N)=C(C)NC3=C2C(=O)CC(C)(C)C3)c(OC)c1 (stereo not drawn) | -3.94%
24 | CCOc1ccc(N2CC(C(=O)Nc3ccc(S(=O)(=O)Nc4nccs4)cc3)CC2=O)cc1 (stereo not drawn) | 15.7%
